# According to the supplement of paper PMC8728848:
# Some of the results follow.
# Tests used:
# Assay in all cases: glycan array binding signal (z-score within array); higher = stronger binding
# Settings in all cases: glycan notation: IUPAC condensed, linker removed
# [1] = target: Fuc(a1-2)[Gal(a1-3)]Gal(b1-3)GlcNAc(b1-3)GalNAc
# In short: (§1)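 From the Consortium for Functional Glycomics database, 3228 arrays were curated, keeping only those whose protein sequence was available. Binding is given as a within-array Z-score averaged across arrays sharing a protein sequence and across linkers. Negative Z-scores can be read as non-binding.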
# [2] = target: Fuc(a1-2)[Gal(a1-3)]Gal(b1-3)GlcNAc(b1-6)GalNAc
# In short: as §1
# [3] = target: Fuc(a1-2)[Gal(a1-3)]Gal(b1-4)Glc
# In short: as §1
# [4] = target: Fuc(a1-2)[Gal(a1-3)]Gal(b1-4)GlcNAc
# In short: as §1
# [5] = target: Fuc(a1-2)[Gal(a1-3)]Gal(b1-4)GlcNAc(b1-2)Man
# In short: as §1
# [6] = target: Fuc(a1-2)[Gal(a1-3)]Gal(b1-4)GlcNAc(b1-2)Man(a1-3)[Fuc(a1-2)[Gal(a1-3)]Gal(b1-4)GlcNAc(b1-2)Man(a1-6)]Man(b1-4)GlcNAc(b1-4)GlcNAc
# In short: as §1
# [7] = target: Fuc(a1-2)[Gal(a1-3)]Gal(b1-4)GlcNAc(b1-2)Man(a1-3)[Fuc(a1-2)[Gal(a1-3)]Gal(b1-4)GlcNAc(b1-2)Man(a1-6)]Man(b1-4)GlcNAc(b1-4)[Fuc(a1-6)]GlcNAc
# In short: as §1
# [8] = target: Fuc(a1-2)[Gal(a1-3)]Gal(b1-4)GlcNAc(b1-3)GalNAc
# In short: as §1
# [9] = target: Fuc(a1-2)[Gal(a1-3)]Gal(b1-4)GlcNAc(b1-6)GalNAc
# In short: as §1
# [10] = target: Fuc(a1-2)[Gal(a1-3)]Gal(b1-4)[Fuc(a1-3)]Glc
# In short: as §1
# [11] = target: Fuc(a1-2)[Gal(a1-3)]Gal(b1-4)[Fuc(a1-3)]GlcNAc
# In short: as §1
# [12] = target: Fuc(a1-2)[Gal(a1-3)]Gal(b1-4)[Fuc(a1-3)]GlcNAc(b1-3)GalNAc
# In short: as §1
# [13] = target: Fuc(a1-2)[Gal(a1-4)]Gal(b1-4)GalNAc
# In short: as §1
# [14] = target: Fuc(a1-2)[Gal(a1-4)]Gal(b1-4)GlcNAc
# In short: as §1
# [15] = target: Fuc(a1-2)[GalNAc(a1-3)]Gal
# In short: as §1
# [16] = target: Fuc(a1-2)[GalNAc(a1-3)]Gal(b1-3)GalNAc(a1-3)[Fuc(a1-2)]Gal(b1-4)GlcNAc
# In short: as §1
# [17] = target: Fuc(a1-2)[GalNAc(a1-3)]Gal(b1-3)GalNAc(b1-3)Gal(a1-4)Gal(b1-4)Glc
# In short: as §1
# [18] = target: Fuc(a1-2)[GalNAc(a1-3)]Gal(b1-3)GlcNAc
# In short: as §1
# [19] = target: Fuc(a1-2)[GalNAc(a1-3)]Gal(b1-3)GlcNAc(b1-2)Man(a1-3)[Fuc(a1-2)[GalNAc(a1-3)]Gal(b1-3)GlcNAc(b1-2)Man(a1-6)]Man(b1-4)GlcNAc(b1-4)GlcNAc
# In short: as §1
# [20] = target: Fuc(a1-2)[GalNAc(a1-3)]Gal(b1-3)GlcNAc(b1-2)Man(a1-3)[Fuc(a1-2)[GalNAc(a1-3)]Gal(b1-3)GlcNAc(b1-2)Man(a1-6)]Man(b1-4)GlcNAc(b1-4)[Fuc(a1-6)]GlcNAc
# In short: as §1
# [21] = target: Fuc(a1-2)[GalNAc(a1-3)]Gal(b1-3)GlcNAc(b1-3)GalNAc
# In short: as §1
# [22] = target: Fuc(a1-2)[GalNAc(a1-3)]Gal(b1-3)GlcNAc(b1-6)GalNAc
# In short: as §1
# [23] = target: Fuc(a1-2)[GalNAc(a1-3)]Gal(b1-4)Glc
# In short: as §1
# [24] = target: Fuc(a1-2)[GalNAc(a1-3)]Gal(b1-4)GlcNAc
# In short: as §1
# [25] = target: Fuc(a1-2)[GalNAc(a1-3)]Gal(b1-4)GlcNAc(b1-2)Man
# In short: as §1
# [26] = target: Fuc(a1-2)[GalNAc(a1-3)]Gal(b1-4)GlcNAc(b1-2)Man(a1-3)[Fuc(a1-2)[GalNAc(a1-3)]Gal(b1-4)GlcNAc(b1-2)Man(a1-6)]Man(b1-4)GlcNAc(b1-4)GlcNAc
# In short: as §1
# [27] = target: Fuc(a1-2)[GalNAc(a1-3)]Gal(b1-4)GlcNAc(b1-2)Man(a1-3)[Fuc(a1-2)[GalNAc(a1-3)]Gal(b1-4)GlcNAc(b1-2)Man(a1-6)]Man(b1-4)GlcNAc(b1-4)[Fuc(a1-6)]GlcNAc
# In short: as §1
# [28] = target: Fuc(a1-2)[GalNAc(a1-3)]Gal(b1-4)GlcNAc(b1-3)Gal(b1-4)GlcNAc
# In short: as §1
# [29] = target: Fuc(a1-2)[GalNAc(a1-3)]Gal(b1-4)GlcNAc(b1-3)Gal(b1-4)GlcNAc(b1-3)Gal(b1-4)GlcNAc
# In short: as §1
# [30] = target: Fuc(a1-2)[GalNAc(a1-3)]Gal(b1-4)GlcNAc(b1-3)GalNAc
# In short: as §1
# [31] = target: Fuc(a1-2)[GalNAc(a1-3)]Gal(b1-4)GlcNAc(b1-3)[Fuc(a1-2)[GalNAc(a1-3)]Gal(b1-4)GlcNAc(b1-6)]GalNAc
# In short: as §1
# [32] = target: Fuc(a1-2)[GalNAc(a1-3)]Gal(b1-4)GlcNAc(b1-6)GalNAc
# In short: as §1
# [33] = target: Fuc(a1-2)[GalNAc(a1-3)]Gal(b1-4)[Fuc(a1-3)]GlcNAc
# In short: as §1
# [34] = target: Fuc(a1-2)[GalNAc(a1-3)]Gal(b1-4)[Fuc(a1-3)]GlcNAc(b1-3)GalNAc
# In short: as §1
# [35] = target: Fuc(a1-2)[GalNAc(a1-4)]Gal(b1-4)GlcNAc
# In short: as §1
# [36] = target: Fuc(a1-2)[GalNAc(b1-3)]Gal
# In short: as §1
# [37] = target: Fuc(a1-3)GlcNAc
# In short: as §1
binder,measurement,setting,value
"UEA-I (Ulex europaeus), P22972 (protein) SDDLSFKFKNFSQNGKDLSFQGDASVIETGVLQLNKVGNNLPDETGGIARYIAPIHIWNCNTGEVASFITSFSFFMETSANPKAATDGLTFFLAPPDSPLRRAGGYFGLFEDTKDNDSSYQTVAVEFDTIGSPVNFDDPGFPHIGIDVNRVKSINAERWNKRYGLNNVANVEIIYEASSKTLTASLTYPSDQTSISVTSIVDLKEILPEWVSVGFSGGTYIGRQATHEVLNWYFTSNLINTNS",glycan array binding signal (z-score),[1],-0.244
same,glycan array binding signal (z-score),[2],-0.213
same,glycan array binding signal (z-score),[3],-0.176
same,glycan array binding signal (z-score),[4],-0.205
same,glycan array binding signal (z-score),[5],-0.199
same,glycan array binding signal (z-score),[6],-0.194
same,glycan array binding signal (z-score),[7],-0.143
same,glycan array binding signal (z-score),[8],-0.148
same,glycan array binding signal (z-score),[9],-0.21
same,glycan array binding signal (z-score),[10],-0.07
same,glycan array binding signal (z-score),[11],-0.09
same,glycan array binding signal (z-score),[12],-0.022
same,glycan array binding signal (z-score),[13],5.51
same,glycan array binding signal (z-score),[14],5.58
same,glycan array binding signal (z-score),[15],-0.22
same,glycan array binding signal (z-score),[16],-0.245
same,glycan array binding signal (z-score),[17],-0.224
same,glycan array binding signal (z-score),[18],-0.188
same,glycan array binding signal (z-score),[19],-0.158
same,glycan array binding signal (z-score),[20],-0.21
same,glycan array binding signal (z-score),[21],0.107
same,glycan array binding signal (z-score),[22],-0.233
same,glycan array binding signal (z-score),[23],-0.165
same,glycan array binding signal (z-score),[24],-0.201
same,glycan array binding signal (z-score),[25],-0.207
same,glycan array binding signal (z-score),[26],-0.197
same,glycan array binding signal (z-score),[27],-0.013
same,glycan array binding signal (z-score),[28],-0.19
same,glycan array binding signal (z-score),[29],0.04
same,glycan array binding signal (z-score),[30],-0.117
same,glycan array binding signal (z-score),[31],-0.178
same,glycan array binding signal (z-score),[32],-0.233
same,glycan array binding signal (z-score),[33],-0.164
same,glycan array binding signal (z-score),[34],0.061
same,glycan array binding signal (z-score),[35],5.17
same,glycan array binding signal (z-score),[36],-0.226
same,glycan array binding signal (z-score),[37],0.94
